Data on 28 compounds can be found in the supplement of paper PMC10037445.

± gives the standard deviation of the averaged measurements. Whole data set: some 2,900 compounds, median “IRF Lucia reporter activity, fold change vs agonist alone” near 0.9, cut for the highest 2% near 2.8. Some of the results follow.

Assay [1] deals with RAW-Dual. Put plainly: IRF Lucia reporter activity, fold change vs agonist alone; cytotoxicity flag (confluency mask): not cytotoxic; higher = enhanced IRF activity. In outline:
(§1)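 After 50 nL of library stock was delivered by pin tool to RAW-Dual macrophages (50,000 cells/well, DMEM, 384-well plates), a PRR agonist was added 1 h later and the plates were kept at 37 °C, 5% CO2. Twenty hours later, IRF was read from supernatant by QuantiLuc luminescence and NF-κB by QuantiBlue absorbance at 620 nm. Reporter activity is stated as fold change over agonist-alone wells. Wells with IncuCyte confluency under 70% of agonist controls in both mask sets were counted as cytotoxic.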

The test system of assay [2] is RAW-Dual. Nature of the assay: IRF Lucia reporter activity, fold change vs agonist alone; higher = enhanced IRF activity. The settings on record: library stock concentration (final ~1000-fold dilution): 10 mM, agonist: MPLA (TLR4) […]. The method, boiled down: as §1
The test system of assay [3] is RAW-Dual. Put plainly: IRF Lucia reporter activity, fold change vs agonist alone; cytotoxicity flag (confluency mask): cytotoxic (confluency <70% of control); higher = enhanced IRF activity. The method, boiled down:
as §1

[4] abbreviates: agonist: 3'3'-cGAMP (STING) 10 ug/mL.
Setting [5] is: cytotoxicity flag (confluency mask): not cytotoxic.
Where [6] appears, read: cytotoxicity flag (confluency mask): cytotoxic (confluency <70% of control).

Consider `CC12CCC3c4ccc(O)cc4CC(CCCCCCCCCS(=O)CCCC(F)(F)C(F)(F)F)C3C1CCC2O` (stereo not given) (library stock concentration (final ~1000-fold dilution): 10 mM), for which the “IRF Lucia reporter activity” value with RAW-Dual [1] (setting [4]) was determined as 0.388; with RAW-Dual [1] (agonist: LPS (TLR4) 0.1 ug/mL), 1.25.

For the compound `CC12CCC3c4ccc(O)cc4CC(CCCCCCCCCS(=O)CCCC(F)(F)C(F)(F)F)C3C1CCC2O` (stereo not given), the “IRF Lucia reporter activity” value with RAW-Dual [2] (setting [5]) is 0.825.

Turning to `OCC1OC(c2ccc(F)c(Cc3cc4ccccc4s3)c2)C(O)C(O)C1O` (stereo not given) (library stock concentration (final ~1000-fold dilution): 10 mM), the “IRF Lucia reporter activity” value in the assay on RAW-Dual [1] (setting [4]) was found to be 1.09; in the assay with RAW-Dual [1] (agonist: LPS (TLR4) 0.1 ug/mL), 0.939.

`Cn1cncc1C(N)(c1ccc(Cl)cc1)c1ccc2c(c1)c(-c1cccc(Cl)c1)cc(=O)n2C` (stereo not given) (library stock concentration (final ~1000-fold dilution): 10 mM): the “IRF Lucia reporter activity” value with RAW-Dual [3] (setting [4]) came to 0.374; with RAW-Dual [3] (agonist: LPS (TLR4) 0.1 ug/mL), 0.641.

As for `Cn1cncc1C(N)(c1ccc(Cl)cc1)c1ccc2c(c1)c(-c1cccc(Cl)c1)cc(=O)n2C` (stereo not given), the “IRF Lucia reporter activity” value with RAW-Dual [2] (setting [6]) is 0.481.

`COC(=O)C1=C(C)NC(C)=C(C(=O)OC(C)C)C1c1cccc2nonc12` (stereo not given) (library stock concentration (final ~1000-fold dilution): 10 mM): the results for the “IRF Lucia reporter activity” value with RAW-Dual [1] (setting [4]) and in the assay with RAW-Dual [1] (agonist: LPS (TLR4) 0.1 ug/mL) were 0.868 and 0.766, respectively.

Take `COC(=O)C1=C(C)NC(C)=C(C(=O)OC(C)C)C1c1cccc2nonc12` (stereo not given): the “IRF Lucia reporter activity” value with RAW-Dual [2] (setting [5]) came to 0.844.

On to `O=C(NO)c1ccc(CC(=O)N(CCO)c2ccccc2)cc1` (library stock concentration (final ~1000-fold dilution): 10 mM), for which the results for the “IRF Lucia reporter activity” value with RAW-Dual [1] (setting [4]) and with RAW-Dual [1] (agonist: LPS (TLR4) 0.1 ug/mL) were 0.616 and 0.852, respectively.

Take `O=C(NO)c1ccc(CC(=O)N(CCO)c2ccccc2)cc1`: the “IRF Lucia reporter activity” value in the assay with RAW-Dual [2] (setting [5]) was determined as 0.969.

Regarding `Cc1cc(C)nc(NC(=S)N2CCN(Cc3ccc(C(F)(F)F)cc3)CC2)c1` (library stock concentration (final ~1000-fold dilution): 10 mM), the “IRF Lucia reporter activity” value worked out at 0.622 in the assay on RAW-Dual [1] (setting [4]) and 1.15 in the assay with RAW-Dual [1] (agonist: LPS (TLR4) 0.1 ug/mL).

Regarding `Cn1c(Nc2ccc(C(F)(F)F)cc2)nc2cc(Oc3ccnc(-c4ncc(C(F)(F)F)[nH]4)c3)ccc21` (library stock concentration (final ~1000-fold dilution): 10 mM), the entries for the “IRF Lucia reporter activity” value with RAW-Dual [1] (setting [4]) and with RAW-Dual [1] (agonist: LPS (TLR4) 0.1 ug/mL) were 0.276 and 0.593, respectively.

Consider `Cn1c(Nc2ccc(C(F)(F)F)cc2)nc2cc(Oc3ccnc(-c4ncc(C(F)(F)F)[nH]4)c3)ccc21`, for which, in the assay with RAW-Dual [2] (setting [5]), the “IRF Lucia reporter activity” value is 0.921.

Consider `COC1OC(CO)C(O)C(O)C1O` (stereo not given), for which, in the assay on RAW-Dual [2] (setting [5]), the “IRF Lucia reporter activity” value was found to be 0.995.

Turning to `COC1OC(CO)C(O)C(O)C1O` (stereo not given) (library stock concentration (final ~1000-fold dilution): 10 mM), the “IRF Lucia reporter activity” value in the assay with RAW-Dual [1] (setting [4]) is 0.994; with RAW-Dual [1] (agonist: LPS (TLR4) 0.1 ug/mL), 1.31.

On to `CC(C)CC(C=O)NC(=O)C(CC(C)C)NC(=O)C(CC(C)C)NC(=O)OCc1ccccc1` (stereo not given), for which the “IRF Lucia reporter activity” value in the assay on RAW-Dual [2] (setting [5]) was 1.11.

Take `CC(C)CC(C=O)NC(=O)C(CC(C)C)NC(=O)C(CC(C)C)NC(=O)OCc1ccccc1` (stereo not given) (library stock concentration (final ~1000-fold dilution): 10 mM): the figures for the “IRF Lucia reporter activity” value in the assay on RAW-Dual [1] (setting [4]) and in the assay on RAW-Dual [1] (agonist: LPS (TLR4) 0.1 ug/mL) were 1.03 and 1.41, respectively.

For the compound `NCc1c[nH]c(=S)n1C1CCc2c(F)cc(F)cc2C1` (stereo not given), the “IRF Lucia reporter activity” value in the assay on RAW-Dual [2] (setting [5]) was 1.05.

With `NCc1c[nH]c(=S)n1C1CCc2c(F)cc(F)cc2C1` (stereo not given) (library stock concentration (final ~1000-fold dilution): 10 mM), the “IRF Lucia reporter activity” value came out at 0.783 with RAW-Dual [1] (setting [4]) and 1.27 in the assay with RAW-Dual [1] (agonist: LPS (TLR4) 0.1 ug/mL).

Take `COc1cc2ncnc(Nc3cccc(Cl)c3F)c2cc1OC(=O)N1CCN(C)CC1C` (stereo not given) (library stock concentration (final ~1000-fold dilution): 10 mM): the “IRF Lucia reporter activity” value was determined as 0.804 in the assay with RAW-Dual [1] (setting [4]) and 1.17 with RAW-Dual [1] (agonist: LPS (TLR4) 0.1 ug/mL).

On to `CC(=O)SCC(Cc1ccccc1)C(=O)NCC(=O)OCc1ccccc1` (stereo not given) (library stock concentration (final ~1000-fold dilution): 10 mM), for which the “IRF Lucia reporter activity” value worked out at 1.07 in the assay with RAW-Dual [1] (setting [4]) and 0.765 in the assay on RAW-Dual [1] (agonist: LPS (TLR4) 0.1 ug/mL).

With `CC(=O)SCC(Cc1ccccc1)C(=O)NCC(=O)OCc1ccccc1` (stereo not given), the “IRF Lucia reporter activity” value in the assay with RAW-Dual [2] (setting [5]) is 0.853.

In the case of `S=C(NCc1ccc2c(c1)OCO2)N1CCN(c2ncnc3c2oc2ccccc23)CC1` (library stock concentration (final ~1000-fold dilution): 10 mM), the results for the “IRF Lucia reporter activity” value in the assay on RAW-Dual [1] (setting [4]) and in the assay with RAW-Dual [1] (agonist: LPS (TLR4) 0.1 ug/mL) were 0.411 and 0.701, respectively.

As for `S=C(NCc1ccc2c(c1)OCO2)N1CCN(c2ncnc3c2oc2ccccc23)CC1`, the “IRF Lucia reporter activity” value with RAW-Dual [2] (setting [5]) was 0.255.

`Nc1ncnc2c1ncn2C(C=O)OC(C=O)CO` (stereo not given) (library stock concentration (final ~1000-fold dilution): 10 mM): the “IRF Lucia reporter activity” value was 0.427 with RAW-Dual [1] (setting [4]) and 0.724 with RAW-Dual [1] (agonist: LPS (TLR4) 0.1 ug/mL).

On to `Cc1noc(C)c1-c1ccc(-c2cc(C(N)=O)c(NC(N)=O)s2)c(OC2CCNC2)c1` (stereo not given) (library stock concentration (final ~1000-fold dilution): 10 mM), for which the figures for the “IRF Lucia reporter activity” value in the assay with RAW-Dual [1] (setting [4]) and with RAW-Dual [1] (agonist: LPS (TLR4) 0.1 ug/mL) were 0.599 ± 0.59 and 0.288 ± 0.24, respectively.

For the compound `CC1(C)CCC2=C(O1)c1ccccc1C(=O)C2=O`, the “IRF Lucia reporter activity” value with RAW-Dual [2] (setting [6]) was 0.0139.

Consider `CC1(C)CCC2=C(O1)c1ccccc1C(=O)C2=O` (library stock concentration (final ~1000-fold dilution): 10 mM), for which the results for the “IRF Lucia reporter activity” value in the assay on RAW-Dual [3] (setting [4]) and in the assay on RAW-Dual [3] (agonist: LPS (TLR4) 0.1 ug/mL) were 0.00675 and 0.0163, respectively.

In the case of `O=C(NCC(O)CN1CCc2ccccc2C1)c1ccnc(NC2CCC2)c1` (stereo not given) (library stock concentration (final ~1000-fold dilution): 10 mM), the “IRF Lucia reporter activity” value with RAW-Dual [1] (setting [4]) is 0.856; in the assay with RAW-Dual [1] (agonist: LPS (TLR4) 0.1 ug/mL), 1.08.
